Source: PubChem BioAssay AID686978 (National Center for Advancing Translational Sciences (NCATS), 2013)
In all, about 420,000 compounds went through this assay and about 64,000 (15%) were called active. The shares of active, inactive and inconclusive entries below differ from those in the screen. Calls come from the whole dose curve; as a rule, active = well fitted inhibition curve with a large enough effect; inconclusive = small, poorly fitted or top-dose-only effect; inactive = flat fitted curve, though single readings scatter. No potency is given beside an inconclusive call; the fits are too rough.
Potency is the fitted concentration of half-maximal effect; tags give direction and shape of the fitted curve.

Assay: qHTS for Inhibitors of human tyrosyl-DNA phosphodiesterase 1 (TDP1): qHTS in cells in absence of CPT; note: nearly all actives have a fitted effect of over 55% in size
Conditions: DT40 Tdp1-/- hTDP1 cells, no CPT, ATP luminescence, 48 h; series mostly up to 46.2 µM
Outline: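 A cellular qHTS used chicken DT40 cells lacking endogenous Tdp1 but carrying stably transfected human TDP1. Compounds were applied without camptothecin, and cell growth kinetics were judged by ATP-dependent luminescence after ≥48 hr.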
For COc1cc(/C=C/C(=O)Nc2cccnc2)cc(OC)c1OC, the Potency was inconclusive [inhibitor, single point]. In the case of CC(C)C(=O)Nc1ccc(C(=O)NNC(=S)NC(=O)c2ccco2)cc1, the Potency is reported as inconclusive [inhibitor, single point]. In the case of CSc1nc(N(C)C)nc(N(C)C#N)n1, the Potency is reported as “inactive”. With Cc1ccc(Cl)cc1N1CCN(C(=O)Cc2csc(Nc3nc(=S)[nH]c4ccccc34)n2)CC1 the Potency was active: 14.6 µM. In the case of COc1ccc(C(=O)C(=O)N2CCC(c3ccccc3)CC2)cn1, the Potency is reported as inconclusive [inhibitor, single point]. For Cc1ccc2sc(N3CCN(C(=O)C4COc5ccccc5O4)CC3)nc2c1C (stereo unspecified), the Potency was inconclusive [inhibitor, single point]. For COC(C(=O)Nc1ccnn1C1CCN(Cc2ccc(C)s2)CC1)c1ccccc1 (stereo unspecified), the Potency was “inactive”. With CN(C)C(=O)c1cn(-c2ccccc2)c(=O)c2ccccc12 the Potency was “inactive”. In the case of Cc1ccc(Cl)cc1NC(=O)c1oc2ccc(S(=O)(=O)N3CCC4(CC3)OCCO4)cc2c1C, the Potency is reported as “inactive”. In the case of O=C(Nc1ccc2c(c1)OCO2)c1cc(C2CCCCN2S(=O)(=O)c2ccccc2)on1 (stereo unspecified), the Potency is reported as inconclusive [inhibitor, single point]. In the case of COc1ccc2oc(-c3ccccc3)c(C(=O)N3CCOCC3)c2c1, the Potency is reported as active: 13 µM. With Cc1cc(F)ccc1S(=O)(=O)Nc1cc2c(C(=O)O)c(C)oc2c2ccccc12 the Potency was “inactive”. In the case of Cc1c(C(=O)Nc2ccc3c(c2)OCO3)sc2nc(-c3ccccc3)cn12, the Potency is reported as inconclusive [inhibitor, full curve]. In the case of CC(C)N(c1ccccc1)c1ccc(NC(=O)COC(=O)CCN2C(=O)c3cccc([N+](=O)[O-])c3C2=O)cc1, the Potency is reported as active: 16.4 µM. With CCOC(OCC)c1nc(N)[nH]c(=O)c1CCCCc1ccccc1 the Potency was active: 16.4 µM. For CCNCC(=O)N1c2ccccc2CCc2ccc(NC(=O)OC(C)C)cc21, the Potency was active: 16.4 µM. For O=C(O)C(CC1CCCCC1)N1CCS(=O)(=O)CC1 (stereo unspecified), the Potency was “inactive”. In the case of COc1ccc(NC(=S)NCC2CCN(c3ccc(OC)cc3)C2)cc1 (stereo unspecified), the Potency is reported as inconclusive [inhibitor, single point]. For O=C(Nc1ccccc1-c1ccccc1)NC1CC2CCCC(C1)N2CCc1ccccc1 (stereo unspecified), the Potency was “inactive”. For CC1CC(C)CN(c2oc(-c3ccccc3F)nc2C#N)C1 (stereo unspecified), the Potency was inconclusive [inhibitor, single point]. For O=C(COc1ccc(Br)cc1)NCC1COc2ccccc2O1 (stereo unspecified), the Potency was inconclusive [inhibitor, single point]. For O=C(CCC(=O)Nc1ccc(Br)cc1)N/N=C/c1cc([N+](=O)[O-])ccc1O, the Potency was inconclusive [inhibitor, single point]. With COc1ccc(OC)c(CC2C(=O)Nc3ccc(Br)cc32)c1 (stereo unspecified) the Potency was active: 7.31 µM. For CCOC(=O)c1ccc(NC(=O)c2ccc(NS(C)(=O)=O)cc2)cc1, the Potency was inconclusive [inhibitor, single point]. For Cc1cc(OCc2cc(C(=O)N(C)C3CCOCC3)no2)cc(C)c1Cl, the Potency was inconclusive [inhibitor, single point]. For FC(F)(F)c1cc(-c2ccco2)nc(-n2cnc3ccccc32)n1, the Potency was “inactive”. In the case of COc1ccc(CCNC(=O)[C@@H]2C[C@H]2c2ccccc2)cc1OC, the Potency is reported as inconclusive [inhibitor, partial curve, poor fit]. With CN1CCN(c2ncc3c(n2)CC(c2ccccc2F)CC3=O)CC1 (stereo unspecified) the Potency was active: 18.4 µM. With C[C@@H]1CN(Cc2nc(-c3ccc(Cl)cc3)no2)C[C@H](C)O1 the Potency was inconclusive [inhibitor, partial curve]. With CC(=O)Nc1ccc(S(=O)(=O)N2CCN(c3cnn(C)c(=O)c3Cl)CC2)cc1 the Potency was inconclusive [inhibitor, partial curve]. In the case of CC(NC(=O)CSc1nc2sc3c(c2c(=O)n1-c1ccccc1)CCCC3)c1ccccc1 (stereo unspecified), the Potency is reported as inconclusive [inhibitor, single point]. With Cc1ccc(C(=O)c2ccccc2C(=O)Nc2ccccc2)cc1 the Potency was inconclusive [inhibitor, single point]. For O=C(NCCCn1ccnc1)c1ccc(F)cc1, the Potency was “inactive”. In the case of Cc1nnc(SC(C)C(=O)Nc2ccc(Cl)cn2)n1Cc1ccccc1 (stereo unspecified), the Potency is reported as inconclusive [inhibitor, full curve, poor fit]. In the case of O=C(NN=C1CCCCC1)c1ccccc1OCc1ccc(F)cc1, the Potency is reported as inconclusive [inhibitor, partial curve]. For O=C(NCc1ccco1)c1cnn2c1NC(c1ccc(Br)cc1)CC2C(F)(F)F (stereo unspecified), the Potency was active: 4.11 µM. In the case of CCCCNC(=O)C1CCC(Cn2c(=O)c3sccc3n(CC(=O)Nc3ccccc3)c2=O)CC1 (stereo unspecified), the Potency is reported as inconclusive [inhibitor, single point]. For O=P(O)(O)OC[C@H]1O[C@](O)(COP(=O)(O)O)[C@@H](O)[C@@H]1O, the Potency was “inactive”. For N#Cc1ccc(NC(=O)C2Cc3ccccc3CN2S(=O)(=O)c2ccc(F)cc2)cc1 (stereo unspecified), the Potency was inconclusive [inhibitor, single point]. In the case of O=C1NCCOC(=O)[C@H](Cc2ccc(F)cc2)C/C=C\C[C@@H]1CC(=O)N(CCO)Cc1ccccc1, the Potency is reported as active: 11.6 µM. In the case of CCOC(=O)C1(C)CCCCN1C(=O)c1cccc(Cl)c1 (stereo unspecified), the Potency is reported as active: 14.6 µM. For O=C(Nc1nccs1)c1ccc(S(=O)(=O)N2CCOCC2)cc1, the Potency was active: 16.4 µM. For Cc1nc2cc(NC(=O)Nc3ccccc3Cl)ccc2n1C, the Potency was inconclusive [inhibitor, partial curve]. For COC(=O)CCc1c(C)c(C(=O)c2cc(OC)c(OC)c(OC)c2)c2ccccn12, the Potency was inconclusive [inhibitor, single point]. In the case of CC(NC(=O)CCc1ccc(S(=O)(=O)NC2CCCCC2)cc1)c1ccccc1 (stereo unspecified), the Potency is reported as inconclusive [inhibitor, partial curve]. For CCN(CC)CCN1C(=O)C2C(C(=O)Nc3cccc(C)c3)C3C=CC2(O3)C1C(=O)NC1CCCC(C)C1C (stereo unspecified), the Potency was “inactive”. In the case of CCOC(=O)C1CCCN(C(=O)c2cc(Nc3ccc(OC)cc3OC)nc3ccccc23)C1 (stereo unspecified), the Potency is reported as active: 20.6 µM. With CC(=O)N1CCN(C(=O)COc2ccc(N(C)S(=O)(=O)c3cccs3)cc2)CC1 the Potency was inconclusive [inhibitor, single point]. For CC1(C)CC(=O)C2=C(C1)OC(N)=C(C#N)C21C(=O)N(Cc2ccccc2Cl)c2ccccc21 (stereo unspecified), the Potency was active: 23.1 µM. With O=C(C[C@H]1C[C@H](C(=O)N2CCCCC2)[C@@]2(CCc3ccccc3)c3[nH]c4ccc(Cl)cc4c3CCN2C1=O)NCCc1ccccn1 the Potency was active: 18.4 µM. In the case of CC(C)c1cc(-c2cc(C(=O)NCc3ccccc3)on2)nc(NCC2CC2)n1, the Potency is reported as inconclusive [inhibitor, single point]. With CCOC(=O)CN1C(=O)N[C@@H](c2cccs2)C(C(=O)OC)=C1C the Potency was inconclusive [inhibitor, single point]. With C/C=C\C=C\C(=O)N1CC2(CC(c3cccc(NC(=O)COc4ccc(Cl)cc4)c3)=NO2)C[C@H]1C(N)=O (stereo partly specified) the Potency was inconclusive [inhibitor, partial curve]. For N#Cc1c(=O)c2nc(NCCCO)ncc2n2c(=O)c3ccccc3[nH]c12, the Potency was “inactive”. With Cc1cc(SCC(=O)Nc2ccc(O)cc2)n2nc(C)c(-c3ccccc3)c2n1 the Potency was inconclusive [inhibitor, single point]. With CCC(=O)N1CCc2cc(Br)cc(S(=O)(=O)CCC(=O)Nc3ccc(Cl)cc3)c21 the Potency was “inactive”. In the case of CCOC(=O)c1cc(-c2ccc(C)cc2)n(CCC(=O)NCCc2ccc(C)cc2)c1C, the Potency is reported as active: 18.4 µM. With Cc1ccc(S(=O)(=O)N2CCc3ccccc3C2CN2C(=O)c3ccccc3C2=O)cc1 (stereo unspecified) the Potency was active: 11.2 µM. In the case of CCN(CC)CCNC(=O)c1cn(CC)c2ccc(S(=O)(=O)N3CCc4ccccc4C3)cc2c1=O, the Potency is reported as inconclusive [inhibitor, single point]. In the case of CC(=O)N1CCN(C(=O)c2cc(-c3cccc4ccccc34)nc3ccccc23)CC1, the Potency is reported as active: 16.4 µM. For CCCS(=O)(=O)NC(=O)C1(C)CCCN(C(=O)c2c(OC)cccc2OC)C1 (stereo unspecified), the Potency was “inactive”. In the case of COc1ccc(CCNC(=O)CSc2nc(C)nc3sccc23)cc1OC, the Potency is reported as “inactive”. With NC1=NC[C@H](c2ccccc2)N1CCCCC1CCCCC1 the Potency was active: 7.31 µM. With CSc1ccccc1NC(=O)COc1ccc2c(c1)OCO2 the Potency was inconclusive [inhibitor, full curve, poor fit]. In the case of CC(C)c1ccc(N2C=Nc3ccc(C(C)C)cc3C2)cc1, the Potency is reported as inconclusive [inhibitor, single point]. With COc1ccccc1CNC(=O)C1CCN(S(=O)(=O)c2ccc3c(c2)OCCO3)CC1 the Potency was “inactive”. With CNc1nc(Oc2ccc(C(=O)OC)cc2)nc(SC)n1 the Potency was inconclusive [inhibitor, partial curve, poor fit]. For Cc1ccc(C(=O)CCC(=O)N(C)CC(=O)Nc2c(Cl)cccc2Cl)cc1, the Potency was “inactive”. For CCCCC(=NCCO)C1=C(O)C(C(=O)OC)C(C)(C)CC1=O (stereo unspecified), the Potency was inconclusive [inhibitor, single point]. With Cc1ccc(C(C)C)c(OCC(=O)N/N=C/C2CCCCC2)c1 the Potency was inconclusive [inhibitor, single point]. In the case of COCC(=O)N1CCC2(CCCN(C(=O)Nc3ccc(OC)cc3)C2)CC1, the Potency is reported as “inactive”.
